# The list shows a part of the results. The energies were worked out here from pooled read counts, against the library average; single values are noisy.
# Molecular target: T1, Pho4 (S. cerevisiae) (UniProt P07270)
# T1 sequence: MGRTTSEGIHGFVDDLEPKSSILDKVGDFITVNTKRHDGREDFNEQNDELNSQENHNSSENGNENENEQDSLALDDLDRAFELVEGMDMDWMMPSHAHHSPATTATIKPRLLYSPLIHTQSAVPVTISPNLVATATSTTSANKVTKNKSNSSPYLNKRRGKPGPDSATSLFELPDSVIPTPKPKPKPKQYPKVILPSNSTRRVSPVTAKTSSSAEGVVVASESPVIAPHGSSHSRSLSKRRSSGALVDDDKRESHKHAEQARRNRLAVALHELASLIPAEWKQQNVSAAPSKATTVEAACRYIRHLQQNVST
# Experiment: relative binding free energy (BET-seq); higher = weaker binding
# Conditions: reference: library average
row,Sequence,relative binding free energy [kcal/mol]
1,AAGGACACGTGGCGGA,0.03
2,TATATCACGTGGCGTA,-0.01
3,TTGGGCACGTGATGGA,0
4,CCGGGCACGTGTGTAG,-0.06
5,CGCTGCACGTGTGTTG,0.05
6,CATGTCACGTGGGTTG,-0.02
7,GGTAGCACGTGGGAAA,-0.12
8,AAACACACGTGGGGGG,-0.13
9,CATTTCACGTGTGGAT,0.32
10,GATGGCACGTGGGTCA,-0.2
11,CGTGACACGTGAGTGA,0.19
12,GTGTACACGTGGGCGG,0.04
13,AGATTCACGTGTCTTT,0.33
14,AGATTCACGTGTGTTA,0.25
15,TAACGCACGTGGGGGT,-0.27
16,TGTAGCACGTGTGTAA,-0.03
17,TGGGGCACGTGAACGG,0.08
18,ACTGGCACGTGGGTAT,-0.15
19,TGGTTCACGTGGTAGG,0.31
20,GTTTACACGTGAGAGT,0.28
21,TGTTCCACGTGGAAGT,0.09
22,CGTCTCACGTGATGTT,0.29
23,TACGGCACGTGTGTCG,-0.07

row,Sequence,relative binding free energy [kcal/mol]
1,ACAGTCACGTGTGTGT,0
2,ACTATCACGTGTGGTT,0.23
3,CGTGTCACGTGGTAAG,-0.04
4,GTGCGCACGTGATGGG,0.12
5,AATGTCACGTGGTCAA,0.02
6,TGGGTCACGTGTAGAA,0.14
7,GTTGTCACGTGCGGGG,0.09
8,CCGGTCACGTGATGGG,0.31
9,TGTTACACGTGTTTCA,0.08
10,CTGTGCACGTGTATTA,-0.04
11,TGGTGCACGTGATGTC,0.23
12,GGCGGCACGTGGGAGG,-0.1
13,TATGGCACGTGGTCAG,-0.18
14,TCCTTCACGTGAGGGT,0.36
15,TCGGTCACGTGGTGGG,0.09
16,TCCATCACGTGGTGTT,0.15
17,TCGGGCACGTGTTTAT,-0.12
18,TAGGGCACGTGCTGGC,-0.2
19,ATGATCACGTGAGTAT,0.3
20,ATGTACACGTGGGGTG,-0.13
21,AGTGTCACGTGTATAG,0.08
22,GTATTCACGTGGGGGA,0.16
23,CGTATCACGTGAGTGT,0.23

row,Sequence,relative binding free energy [kcal/mol]
1,TTGCACACGTGTCGGT,0.16
2,CATTGCACGTGGTTTG,-0.04
3,GGTTGCACGTGGAGAG,0.08
4,TTAGGCACGTGTTGAA,-0.01
5,ATGTCCACGTGTTGAG,0.15
6,TGGAGCACGTGTGATT,0.12
7,GATAACACGTGAGGTT,0.32
8,TTTTGCACGTGTAAGT,0.05
9,ATTGGCACGTGACCGT,0.04
10,GAAGCCACGTGTAGGG,0.01
11,GCTTTCACGTGAGTTG,0.37
12,TTAGGCACGTGTAGAC,0.1
13,GGTTTCACGTGATCTT,0.39
14,AAGATCACGTGGCTGG,0.07
15,CGTTGCACGTGGTCGT,-0.19
16,TAGGGCACGTGGCAGT,-0.16
17,GGAAGCACGTGAGTTA,0.17
18,GTTATCACGTGAAATA,0.36
19,AGTTACACGTGTCTTG,0
20,CTGTTCACGTGAAGTG,0.44
21,TATGGCACGTGGGCGT,-0.34
22,TGTATCACGTGGAGGC,0.14
23,CGGATCACGTGATGTT,0.26

row,Sequence,relative binding free energy [kcal/mol]
1,CTAGTCACGTGAGGGG,0.16
2,CTAATCACGTGGATGG,0.15
3,TGGCTCACGTGAGGGC,0.42
4,TTTTGCACGTGACTTG,0.12
5,GCTATCACGTGGAGGG,0.13
6,GAGTTCACGTGAAGCG,0.43
7,GAAATCACGTGATTTT,0.4
8,TCTTTCACGTGGATTG,0.17
9,AGATACACGTGCGGGG,-0.01
10,GAGTGCACGTGGTTCA,-0.12
11,ATTTTCACGTGAGGGA,0.27
12,TATTACACGTGTTAGA,0.1
13,TGGCTCACGTGGTTGG,0.17
14,TCGAGCACGTGGTAGT,-0.23
15,TGGTGCACGTGAGTGT,0.13
16,AGATTCACGTGTTAAT,0.21
17,GTTAACACGTGACTGG,0.15
18,CTAGTCACGTGCTGGT,0.12
19,CGGGACACGTGGGTAT,-0.11
20,CAGGGCACGTGGGCGA,-0.22
21,AAATACACGTGTGGTG,0.05
22,TGGAGCACGTGTAATG,0.08

# From the BET-seq Pho4 binding data (Le et al. 2018)
